Experimental data: the supplement of paper PMC11417369
Some of the results follow.

System: PF3D7_0420300 AP2 domain 1 (GST-tagged)
Test: gcPBM binding intensity (ln(normalized median fluorescence intensity)); higher = stronger DNA binding
Method in brief: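 The binding buffer was 1× PBS containing 1% milk, 0.2 mg/ml BSA, 0.5% salmon testes DNA and 0.03% Triton X-100. In it, GST-tagged P. falciparum DNA-binding domains expressed in E. coli were applied for 1 h to an Agilent 4 × 180k array of primer-extended double-stranded 36-bp intergenic genomic probes plus negative controls. Binding intensity, read with Alexa488 anti-GST antibody and a 488 nm scan, is the highest Masliner-normalised natural-log median intensity across replicate spots of either probe orientation.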

Row | Sequence | gcPBM binding intensity (ln)
1 | TATTTCTGATTACATACACACATATACAGATATGAC [CACACA_site7490] | 9.48
2 | TTGTAAAACTTATAATGTACATTTTTTTTTTTTTTT [XGTACX_site5398] | 9.06
3 | AGGGACATCTATATCACACACAAAAATTAGTCCCTT [CACACA_site7330] | 9.5
4 | TTTTTTTTTTTTTGCACACACATTGAATTATTATTC [CACACA_site197] | 9.66
5 | ATAAGAAAATATAAAATGCACACTATAAATTGTATA [CACACA_site143] | 9.52
6 | TATATAGAGAGATATGCACACTGTATGAATGCCCCC [CACACA_site5476] | 10
7 | TATACCTATATACATACATGCAAATATATATTCATA [TGCATGCA_site269] | 9.21
8 | ATATGTCACTTGTATACACACATATATATTTCAATC [CACACA_site3256] | 9.72
9 | TTACTTATAAATAAATATACAAAAATGTTATATATA [XGTACX_negctrl_site223] | 8.85
10 | CTGAAAAAAAAGCTTGCACACGTATTTGCTTTATGT [CACACA_site8427] | 9.38
11 | TTTTTTTTTTTTGAAGTGCATTACTTTTTTTGTATT [GTGCAC_site9811] | 9.22
12 | TTTTTTGTGTTTGGTACACACGTTATAAAAAATAAA [CACACA_site4866] | 9.06
13 | AGGAATATAAAGTGCACACATAATTTGGGGGCAAAA [CACACA_site258] | 9.63
14 | GAAAATAGCTAAAATACACACAATTAAAAATTATTA [CACACA_site3506] | 9.39
15 | AAAAAAAAAAATAAATAAATAAATAAATATATATAT [TGCATGCA_negctrl_site468] | 9.24
16 | TACATACATATATATACACACATATATAATATATAT [CACACA_site388] | 9.5
17 | TATATATACATATACACACATACGTACATACATATA [CACACA_site3585] | 9.66
18 | ATATTCATATATACTTCACACACATTTTATCATTCA [CACACA_site8784] | 9.79
19 | ATGAAAGTAAGACATGCATGGAATTTTTTTTATTAG [TGCATGCA_site348] | 8.98
20 | ATAATCCAACTTTGAGTGCGTGGTGTTTTTTTTTTC | 9.53
21 | TTTCTTTTTTTTTTTTTTTCTTTTTTTTTTTTTTTC [CACACA_negctrl_site1025] | 8.9
22 | GGAATATTTTATGAGTGTACATTTTTTTTTTTTTTT [XGTACX_site2370] | 9.24

Row | Sequence | gcPBM binding intensity (ln)
23 | ATAAAATAAACATAAATAAACATAAATAAACAAAAA [CACACA_negctrl_site1270] | 9.75
24 | AGGTATATATACATATGTACGTATATATATATATAT [XGTACX_site5115] | 9.52
25 | TATAATACAACATGCACACATATATATGTGAATCTC [CACACA_site2490] | 9.61
26 | TTTAAAAATAAAAGTACACACATAAACATATTACAC [CACACA_site1428] | 9.9
27 | TTATATAAATTATTTACACACAAACATTTATACTTT [CACACA_site3449] | 9.62
28 | GGCGTATGTGTATATACACACCCACGTATATAAATA [CACACA_site7489] | 9.35
29 | TTTCTAATTTATATCACACACATATTTATATAGTAA [CACACA_site6813] | 9.41
30 | ATACTTTATTCGTTAGCACACAATTCAAGTTGATTC [CACACA_site1123] | 9.42
31 | TATTCCCTTCTTCCTTCTGTTTTTGATATTAAAGGG [GTGCAC_negctrl_site270] | 9.32
32 | AAGATACCCCAAAATTGTACATATTAAAATAATAAA [XGTACX_site3603] | 9.24
33 | ATCCTCTTTACAATATGTACATAAATATATATTTAT [XGTACX_site8001] | 9.4
34 | TATATATTTTTATTATGTACATATTAACAATGTGTT [XGTACX_site879] | 9.2
35 | TATTTATTTATTTATTTATTTATTTATTTATATTTA [CACACA_negctrl_site398] | 8.96
36 | TATATATATAAATACACACACATATATATATATATA [CACACA_site4867] | 9.45
37 | TAAAATATAAAACACACACACATATATATATATATT [CACACA_site224] | 10
38 | AAGTAAAATAAGTATACACACATAAATATATATATA [CACACA_site685] | 9.66
39 | TATAATAATACGTATTGTACTATTAGGTTAATTCGT [XGTACX_site264] | 9.22
40 | TTTTCTTGTAAATTACGTACGAATGTGTAGAGAAAT [XGTACX_site1339] | 9.21
41 | ACTTGTAAGAAACACACACACACACCCATATATATA [CACACA_site796] | 10.4
42 | TCTATAAAGGAATATACACACATATATATATATATA [CACACA_site410] | 9.28
43 | TTGTTTCTACAATTTAATAAAATACGTTTTCAAAAA [XGTACX_negctrl_site377] | 8.69
44 | TACTCCTTAAATATATGTAAAGGAAGAAAAAAAAAA [XGTACX_negctrl_site306] | 9.02

Row | Sequence | gcPBM binding intensity (ln)
45 | ACAATAAAAATAAAAAGTACAAATAAAAAAAATAAA [XGTACX_site6718] | 9.62
46 | AATATATGTTTAATTTCACACACAAATATACATTTT [CACACA_site9385] | 9.57
47 | ATATATATATATATATGTACACATATACGCTTTTTC [XGTACX_site3838] | 9.24
48 | TTTGAGATAAAAGACTGTACTTAGAATGTATAAAAA [XGTACX_site203] | 9.15
49 | AAAAAAAAAAAAAACTGTACCAAAAAGAATATATAC [XGTACX_site8345] | 9.63
50 | TTTAATTTTATATAGAGTACAAAAAAATAGAAAGAT [XGTACX_site3870] | 9.38
51 | ATATATATATATATATGTACATAAATATTTTAAAAT [XGTACX_site4980] | 9.17
52 | TATTTGTAAATTATTTGGGTGTGTAGGGGATATTCT [XGTACX_negctrl_site204] | 9.63
53 | TTTTTTTTTTTATTTGCATGCGGTGTTCATAATATT [TGCATGCA_site199] | 9.39
54 | CGTTCATATTATTATAGTACATATTATTATAGTTTT [XGTACX_site1550] | 9.47
55 | AGAAGAAAAGTAAAAAGTACATTATTCATGGCCTAT [XGTACX_site5601] | 9.23
56 | TTGGTGGATAAATTTACACACAATAACTTTCGTTCA [CACACA_site6358] | 9.46
57 | ATATAAGAAATAAAGAAAAATGTGTTTTTTTTTTTT [XGTACX_negctrl_site396] | 9.13
58 | TTTATCTTATTTTTATGTACTTATTTTATAAAAAAA [XGTACX_site7730] | 9.06
59 | AGAGCTGTTTTTTATGCATGTAGTTTAGAAAATACA [TGCATGCA_site257] | 8.94
60 | AAACAAATATTTATCACAATGTCATTTTGTTAACAT [GTGCAC_negctrl_site171] | 9.21
61 | TTTTTCCTAACATATTATATACTTGAATATTTATTA [CACACA_negctrl_site156] | 9.12
62 | AACAAATTTATCCAAAGTACAAAATATCATTTCTTA [XGTACX_site4543] | 9.09
63 | AACAACATGTAGACGCGTACCAACATCAGATCCTAT [XGTACX_site4071] | 9.47
64 | ATTATAATTATATATGCATGTAGCATTTTCTATTTT [TGCATGCA_site66] | 9.41
65 | TATAAATACTAAAAAAGTACAAAATTTCATAAAAAA [XGTACX_site2709] | 9.13
66 | GGAAAATCTAATCATTTAATATTTATTTATCTAATT [GTGCAC_negctrl_site553] | 9.13

Row | Sequence | gcPBM binding intensity (ln)
67 | ATTTTATATAATACATGTACAAAAGTTTAAATTTAT [XGTACX_site6196] | 9.1
68 | TTCTTTATTTATCATTATAAGAAGAGTTGATTTGTT [XGTACX_negctrl_site555] | 9.13
69 | TTATAATATAGCAATTATTAAATAGGATCAAATGAA [CACACA_negctrl_site632] | 9.18
70 | TTATTAAATATGTACACACGTACATTTTATAAATGA [CACACA_site2387] | 9.01
71 | TATATATATATTTAGTGTACTTAAAAAAAATAATAA [XGTACX_site5454] | 8.99
72 | ATAATAATAAAATATATATACAAAGGTGAAATTATA [TGCATGCA_negctrl_site197] | 9.67
73 | TATTTTTTTTTCCATTGTACATTTTTGATATTTTTC [XGTACX_site744] | 9.57
74 | CTTTGTAGTATATTAACACACAACTGTTTATAATAT [CACACA_site6038] | 9.45
75 | TATATACTCATGCGCACACACAAGTGGGAAATTTGG [CACACA_site5056] | 9.6
76 | TTCTTTAAAAAATTCGATAAAAAAAAAAAAAGAAAA [CACACA_negctrl_site242] | 8.84
77 | ATATATTATAGGTACACACACATATAAGGGATTATA [CACACA_site6154] | 9.89
78 | ATATACATATATATTGCATGCAGAGAGTATTTATAA [TGCATGCA_site646] | 9.27
79 | ATATATATATATATTGTGCACAAAAAAAAATAAGCA | 9.47
80 | GGAAAGACAGTTCACAGTACCCAGGAAATCTACGGA [XGTACX_site1996] | 9.3
81 | TTTTGGTTTTGTTCTACACACATAAAAAAAAAAAAG [CACACA_site2276] | 9.29
82 | TTTCTATTTATTAATACATGCAAAATAAAGTAAAGT [TGCATGCA_site209] | 9.39
83 | ATATATCAATATGGAATATATATATATATATATATA [TGCATGCA_negctrl_site502] | 8.94
84 | TATATATATATATATATATTTATGTATTTATTTAAT [TGCATGCA_negctrl_site179] | 9.05
85 | ATATATATAAATAAATGTACATAAATAATATATTAT [XGTACX_site5419] | 9.33
86 | TTATTTTTATATTTTAATTTTAAAAAAATTTTAATT [CACACA_negctrl_site777] | 8.71
87 | ATTATACATATTATATGTACATATATAAATAAATAA [XGTACX_site7076] | 9.14
